Test results from the supplement of paper PMC4967469.
IC50 is the fitted dose that halves viability relative to control wells, and lower means more sensitive; a limit (>, <) means that the fit lies beyond the doses tested. The AUC spans the tested range (256-fold, ending at the top dose) of the same fit: 1 means no effect, lower means more sensitive. The top dose, if marked as inferred, is not printed in the source and was worked back from the curve model.

What follows are cell lines tested with O=C1NC(=NCc2cccs2)S/C1=C\c1ccc2ncccc2c1 [RO-3306] (assay: Viability of human cancer cell lines after 72 h of drug (GDSC screen)). Conditions: top dose 5 µM; top dose inferred.
Experimental: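 Human cancer cell lines in 384-well plates, medium with 10% serum, drug for 72 h over a 256-fold dose range (nine 2-fold or five 4-fold steps up to the top dose). Adherent lines were fixed and stained with the nucleic acid dye Syto60, suspension lines read with resazurin; signal relative to control wells, capped at 0 and 100%. One two-parameter sigmoid per drug and line, fitted in a mixed model over all curves with the slope shared within a line.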

Row | Cell Line | AUC | IC50 [µM]
1 | NCI-H64 (small cell lung carcinoma, suspension) | 0.988 | > 5
2 | NCI-H69 (small cell lung carcinoma, suspension) | 0.986 | > 5
3 | NCI-H82 (small cell lung carcinoma, suspension) | 0.99 | > 5
4 | NCI-H146 (small cell lung carcinoma, suspension) | 0.992 | > 5
5 | NCI-H187 (small cell lung carcinoma, suspension) | 0.987 | > 5
6 | NCI-H209 (small cell lung carcinoma, suspension) | 0.92 | > 5
7 | NCI-H211 (small cell lung carcinoma, adherent) | 0.982 | > 5
8 | NCI-H226 (lung squamous cell carcinoma, adherent) | 0.955 | > 5
9 | NCI-H322M (lung adenocarcinoma, suspension) | 0.964 | > 5
10 | NCI-H345 (small cell lung carcinoma, suspension) | 0.99 | > 5
11 | NCI-H358 (lung adenocarcinoma, adherent) | 0.908 | > 5
12 | NCI-H446 (small cell lung carcinoma, semi-adherent) | 0.986 | > 5
13 | NCI-H460 (large cell lung carcinoma, adherent) | 0.988 | > 5
14 | NCI-H508 (large intestine, semi-adherent) | 0.976 | > 5
15 | NCI-H510A (small cell lung carcinoma, semi-adherent) | 0.983 | > 5
16 | NCI-H520 (lung squamous cell carcinoma, adherent) | 0.986 | > 5
17 | NCI-H522 (lung adenocarcinoma, adherent) | 0.977 | > 5
18 | NCI-H524 (small cell lung carcinoma, suspension) | 0.986 | > 5
19 | NCI-H526 (small cell lung carcinoma, suspension) | 0.989 | > 5
20 | NCI-H596 (lung adenocarcinoma, adherent) | 0.982 | > 5
21 | NCI-H630 (large intestine, adherent) | 0.988 | > 5
22 | NCI-H647 (non-small cell lung carcinoma, adherent) | 0.984 | > 5

Row | Cell Line | AUC | IC50 [µM]
23 | NCI-H650 (lung adenocarcinoma, adherent) | 0.986 | > 5
24 | NCI-H661 (large cell lung carcinoma, adherent) | 0.936 | > 5
25 | NCI-H720 (lung carcinoid, suspension) | 0.992 | > 5
26 | NCI-H727 (lung carcinoid, adherent) | 0.863 | > 5
27 | NCI-H747 (large intestine, adherent) | 0.915 | > 5
28 | NCI-H810 (large cell lung carcinoma, adherent) | 0.956 | > 5
29 | NCI-H835 (lung carcinoid, suspension) | 0.986 | > 5
30 | NCI-H838 (lung adenocarcinoma, adherent) | 0.934 | > 5
31 | NCI-H841 (small cell lung carcinoma, adherent) | 0.963 | > 5
32 | NCI-H847 (small cell lung carcinoma, adherent) | 0.993 | > 5
33 | NCI-H929 (myeloma, suspension) | 0.96 | > 5
34 | NCI-H1048 (small cell lung carcinoma, adherent) | 0.98 | > 5
35 | NCI-H1092 (small cell lung carcinoma, suspension) | 0.99 | > 5
36 | NCI-H1105 (small cell lung carcinoma, suspension) | 0.993 | > 5
37 | NCI-H1155 (large cell lung carcinoma, suspension) | 0.96 | > 5
38 | NCI-H1304 (small cell lung carcinoma, suspension) | 0.958 | > 5
39 | NCI-H1341 (small cell lung carcinoma, suspension) | 0.991 | > 5
40 | NCI-H1355 (lung adenocarcinoma, adherent) | 0.968 | > 5
41 | NCI-H1395 (lung adenocarcinoma, adherent) | 0.962 | > 5
42 | NCI-H1417 (small cell lung carcinoma, suspension) | 0.945 | > 5
43 | NCI-H1435 (lung adenocarcinoma, semi-adherent) | 0.993 | > 5
44 | NCI-H1436 (small cell lung carcinoma, suspension) | 0.983 | > 5

Row | Cell Line | AUC | IC50 [µM]
45 | NCI-H1437 (lung adenocarcinoma, adherent) | 0.941 | > 5
46 | NCI-H1563 (lung adenocarcinoma, adherent) | 0.893 | > 5
47 | NCI-H1568 (lung adenocarcinoma, adherent) | 0.977 | > 5
48 | NCI-H1623 (lung adenocarcinoma, adherent) | 0.964 | > 5
49 | NCI-H1648 (lung adenocarcinoma, adherent) | 0.977 | > 5
50 | NCI-H1651 (lung adenocarcinoma, adherent) | 0.975 | > 5
51 | NCI-H1688 (small cell lung carcinoma, adherent) | 0.974 | > 5
52 | NCI-H1693 (lung adenocarcinoma, adherent) | 0.958 | > 5
53 | NCI-H1694 (small cell lung carcinoma, suspension) | 0.975 | > 5
54 | NCI-H1703 (lung adenocarcinoma, adherent) | 0.825 | 3.93
55 | NCI-H1755 (lung adenocarcinoma, adherent) | 0.972 | > 5
56 | NCI-H1770 (non-small cell lung carcinoma, suspension) | 0.992 | > 5
57 | NCI-H1781 (lung adenocarcinoma, adherent) | 0.989 | > 5
58 | NCI-H1792 (lung adenocarcinoma, adherent) | 0.894 | > 5
59 | NCI-H1836 (small cell lung carcinoma, suspension) | 0.988 | > 5
60 | NCI-H1838 (lung adenocarcinoma, adherent) | 0.987 | > 5
61 | NCI-H1869 (lung squamous cell carcinoma, adherent) | 0.985 | > 5
62 | NCI-H1876 (small cell lung carcinoma, adherent) | 0.987 | > 5
63 | NCI-H1944 (lung adenocarcinoma, adherent) | 0.813 | 2.94
64 | NCI-H1975 (lung adenocarcinoma, adherent) | 0.925 | > 5
65 | NCI-H1993 (lung adenocarcinoma, adherent) | 0.982 | > 5
66 | NCI-H2009 (lung adenocarcinoma, adherent) | 0.927 | > 5

Row | Cell Line | AUC | IC50 [µM]
67 | NCI-H2023 (lung adenocarcinoma, adherent) | 0.927 | > 5
68 | NCI-H2030 (lung adenocarcinoma, adherent) | 0.974 | > 5
69 | NCI-H2052 (mesothelioma, adherent) | 0.973 | > 5
70 | NCI-H2066 (small cell lung carcinoma, adherent) | 0.953 | > 5
71 | NCI-H2081 (small cell lung carcinoma, suspension) | 0.976 | > 5
72 | NCI-H2085 (lung adenocarcinoma, adherent) | 0.821 | 3.2
73 | NCI-H2087 (lung adenocarcinoma, semi-adherent) | 0.92 | > 5
74 | NCI-H2110 (non-small cell lung carcinoma, adherent) | 0.926 | > 5
75 | NCI-H2135 (non-small cell lung carcinoma, adherent) | 0.991 | > 5
76 | NCI-H2141 (small cell lung carcinoma, suspension) | 0.99 | > 5
77 | NCI-H2172 (non-small cell lung carcinoma, adherent) | 0.982 | > 5
78 | NCI-H2227 (small cell lung carcinoma, semi-adherent) | 0.984 | > 5
79 | NCI-H2291 (lung adenocarcinoma, adherent) | 0.972 | > 5
80 | NCI-H2342 (lung adenocarcinoma, adherent) | 0.986 | > 5
81 | NCI-H2347 (lung adenocarcinoma, adherent) | 0.975 | > 5
82 | NCI-H2405 (lung adenocarcinoma, adherent) | 0.853 | 4.58
83 | NCI-H2444 (non-small cell lung carcinoma, adherent) | 0.981 | > 5
84 | NCI-H2452 (mesothelioma, adherent) | 0.969 | > 5
85 | NCI-H3122 (lung adenocarcinoma, adherent) | 0.974 | > 5
86 | NCI-N87 (stomach, adherent) | 0.961 | > 5
